Source: the supplement of paper PMC7826260
Some of the results follow. Viral Rep nickase domains cut single-stranded DNA in vitro (3 µM enzyme, 1 h, 37 °C); shown is the middle of each 90-letter strand. Values are log2 of uncut reads against the no-enzyme pool; strong cutting gives strongly negative numbers. There is no active / inactive call. Because reads are shares of a total, they shift together; where an enzyme cuts many sequences, the uncut ones exceed 0.

Experiments:
Assay in all cases: uncleaved DNA left, log2 of reads against the no-enzyme library (log2 ratio); higher = less cleavage (more negative = more Rep cleavage of the k-mer); sequences stand for … in CTCGTCCG…ACCGGAGA
[1] = tested on: T1, Rep nickase domain of Muscovy duck circovirus
T1 sequence (residues 1-111, tag not shown): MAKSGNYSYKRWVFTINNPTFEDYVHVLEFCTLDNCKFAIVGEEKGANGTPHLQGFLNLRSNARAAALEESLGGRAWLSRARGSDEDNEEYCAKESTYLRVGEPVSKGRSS
Protocol: (§1)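 A pool of 90-nt single-stranded DNAs with seven random bases just before the constant AC of the nick site (name = the seven bases) was cut by 3 µM recombinant His6-SUMO-tagged Rep nickase domain (300 nM DNA, 50 mM HEPES pH 8.0, 50 mM NaCl, 1 mM MnCl2, 1 h, 37 °C, three replicates). Uncut DNA was amplified and sequenced.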

[2] = tested on: T2, Rep nickase domain of banana bunchy top virus
T2 sequence (residues 1-94, tag not shown): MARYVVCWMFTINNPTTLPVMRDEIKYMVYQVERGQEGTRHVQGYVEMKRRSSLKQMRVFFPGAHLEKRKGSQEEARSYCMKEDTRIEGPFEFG
Protocol: as §1

[3] = tested on: T3, Rep nickase domain of cabbage leaf curl virus
T3 sequence (residues 1-116, tag not shown): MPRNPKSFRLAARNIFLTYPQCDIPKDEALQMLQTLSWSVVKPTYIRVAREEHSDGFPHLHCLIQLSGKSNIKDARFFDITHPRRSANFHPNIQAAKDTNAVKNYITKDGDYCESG
Protocol: as §1

[4] = tested on: T4, Rep nickase domain of chickpea chlorotic dwarf virus
T4 sequence (residues 1-124, tag not shown): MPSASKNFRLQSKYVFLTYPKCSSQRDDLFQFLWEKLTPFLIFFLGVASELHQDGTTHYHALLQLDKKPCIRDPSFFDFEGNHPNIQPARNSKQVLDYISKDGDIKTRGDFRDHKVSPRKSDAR
Protocol: as §1

[5] = tested on: T5, Rep nickase domain of faba bean necrotic yellows virus
T5 sequence (residues 1-98, tag not shown): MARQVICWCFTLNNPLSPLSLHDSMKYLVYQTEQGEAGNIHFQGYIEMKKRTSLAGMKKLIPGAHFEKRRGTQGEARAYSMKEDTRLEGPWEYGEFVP
Protocol: as §1

[6] = tested on: T6, Rep nickase domain of maize striate mosaic virus
T6 sequence (residues 1-117, tag not shown): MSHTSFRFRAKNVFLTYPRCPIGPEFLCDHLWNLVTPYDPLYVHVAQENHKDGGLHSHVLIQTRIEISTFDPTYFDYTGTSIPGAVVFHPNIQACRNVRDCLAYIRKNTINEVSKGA
Protocol: as §1

[7] = tested on: T7, Rep nickase domain of porcine circovirus 2
T7 sequence (residues 2-116, tag not shown): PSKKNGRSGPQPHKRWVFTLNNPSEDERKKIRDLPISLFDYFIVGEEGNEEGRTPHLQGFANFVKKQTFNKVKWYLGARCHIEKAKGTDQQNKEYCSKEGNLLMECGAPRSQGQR
Protocol: as §1

[8] = tested on: T8, Rep nickase domain of tomato golden mosaic virus
T8 sequence (residues 1-124, tag not shown): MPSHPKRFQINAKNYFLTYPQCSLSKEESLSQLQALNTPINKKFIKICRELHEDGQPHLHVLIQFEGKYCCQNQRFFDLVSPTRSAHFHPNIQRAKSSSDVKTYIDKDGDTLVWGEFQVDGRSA
Protocol: as §1

[9] = tested on: T9, Rep nickase domain of tomato yellow leaf curl virus
T9 sequence (residues 1-136, tag not shown): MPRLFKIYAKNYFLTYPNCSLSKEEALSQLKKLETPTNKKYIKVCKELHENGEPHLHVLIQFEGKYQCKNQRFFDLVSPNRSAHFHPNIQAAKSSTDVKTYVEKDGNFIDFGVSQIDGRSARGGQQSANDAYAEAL
Protocol: as §1

[10] = tested on: T10, Rep nickase domain of wheat dwarf virus
T10 sequence (residues 1-137, tag not shown): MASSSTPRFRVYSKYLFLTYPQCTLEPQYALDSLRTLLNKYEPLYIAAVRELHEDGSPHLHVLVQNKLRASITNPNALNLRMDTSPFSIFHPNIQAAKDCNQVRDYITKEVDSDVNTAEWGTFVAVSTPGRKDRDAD
Protocol: as §1

Sequence | uncleaved DNA left (log2) [1] | uncleaved DNA left (log2) [2] | uncleaved DNA left (log2) [3] | uncleaved DNA left (log2) [4] | uncleaved DNA left (log2) [5] | uncleaved DNA left (log2) [6] | uncleaved DNA left (log2) [7] | uncleaved DNA left (log2) [8] | uncleaved DNA left (log2) [9] | uncleaved DNA left (log2) [10]
TCGATGA | 0.125 | -0.212 | 0.0501 | 0.299 | 0.083 | 0.175 | -0.0027 | -0.103 | -0.0828 | -0.116
AAGGTGG | 0.0064 | -0.0857 | -0.215 | 0.229 | 0.0268 | -0.389 | 0.227 | 0.0397 | 0.0281 | 0.0347
TTTCGCC | 0.0995 | -0.00633 | -0.0694 | -0.489 | 0.0777 | -0.88 | 0.0198 | -0.101 | 0.00286 | 0.0411
ATTACGG | 0.0646 | 0.07 | 0.511 | 1.23 | 0.00609 | 1.52 | 0.172 | 0.0535 | -0.0521 | 0.092
TCGACAT | 0.0272 | 0.103 | 0.797 | 1.83 | 0.113 | 2.2 | 0.249 | 0.111 | 0.129 | 0.199
AGTAGAG | 0.185 | 0.0949 | -0.483 | -0.273 | 0.114 | -1.07 | 0.386 | 0.157 | 0.112 | 0.101
AAGCAGT | 0.0319 | -0.0939 | 0.0721 | 0.157 | 0.0805 | 0.282 | -2.21 | -0.0593 | -0.112 | 0.0294
GGGTTCA | 0.106 | 0.141 | 0.792 | 1.9 | 0.0417 | 2.21 | 0.195 | 0.0394 | 0.143 | 0.201
GACATGT | 0.00106 | -0.0455 | 0.483 | 1.19 | -0.0908 | 1.48 | 0.042 | -0.0552 | -0.126 | -0.00928
GAATACC | 0.0184 | 0.0703 | -1.36 | -2.02 | 0.0292 | 0.447 | -0.245 | -0.00171 | 0.0386 | -0.0745
CCATGGT | -0.403 | -0.13 | -0.293 | -0.25 | -0.0729 | -0.505 | -0.673 | -0.0316 | -0.00857 | -0.149
GATCACT | -0.142 | -0.0359 | 0.124 | -1.89 | 0.067 | 0.77 | -0.87 | -0.0484 | -0.00858 | 0.0394
AGTTGGA | 0.0149 | 0.0103 | -0.105 | -0.076 | -0.0337 | -0.68 | -0.192 | -0.0484 | -0.0172 | -0.183
TCCCCTG | -0.194 | -0.104 | -0.075 | -0.352 | -0.0448 | -0.0947 | -0.026 | -0.125 | -0.168 | -0.0186
GTCACAA | 0.132 | 0.156 | 0.291 | 1.11 | 0.055 | 1.75 | 0.18 | 0.14 | 0.26 | 0.274
TGACTTA | 0.117 | 0.137 | 0.12 | 0.277 | 0.12 | 0.916 | -0.0573 | 0.0554 | 0.0401 | 0.0554
CCTGGCT | -0.00301 | -0.163 | -0.354 | -0.837 | 0.0586 | -0.842 | -0.0107 | -0.0828 | -0.156 | -0.21
GTATTTA | 0.00747 | 0.0131 | 0.397 | 0.749 | 0.159 | 1.68 | 0.00727 | 0.112 | 0.0726 | 0.202
GCTCAAT | 0.278 | 0.191 | 0.331 | 0.6 | 0.18 | 0.574 | 0.127 | 0.244 | 0.308 | 0.255
ATTTAGG | 0.0159 | 0.0184 | 0.332 | 1.28 | 0.0387 | 1.24 | 0.065 | 0.0644 | -0.0758 | -0.0591
AATCGAC | 0.0959 | -0.0325 | 0.05 | 0.208 | 0.078 | 0.283 | 0.11 | 0.19 | 0.0922 | 0.15
CGCTCTC | 0.0347 | -0.158 | 0.0115 | -0.193 | -0.0693 | -0.24 | -0.129 | -0.181 | -0.19 | -0.0493
TAAGCAT | 0.0773 | 0.0434 | -1.47 | -2.61 | 0.141 | 0.0517 | 0.0457 | -0.194 | 0.0832 | -0.287
TCGCGCG | 0.0238 | -0.0328 | -0.814 | 0.381 | -0.0106 | -0.836 | -0.0677 | -0.13 | -0.0895 | -0.131
CTACCCG | -0.0276 | -0.0439 | -0.945 | -1.43 | -0.00561 | -0.917 | -1.07 | 0.0463 | -0.0714 | -0.174
CTTATAT | 0.031 | 0.059 | 0.12 | -0.821 | 0.101 | -0.678 | -0.14 | -0.0396 | 0.188 | 0.234
AACTCGG | 0.112 | 0.039 | 0.536 | 1.39 | 0.0721 | 1.43 | 0.104 | 0.176 | 0.0424 | 0.146
AAGTTAA | -0.0964 | -0.0383 | -0.278 | -0.443 | 0.0524 | -0.299 | -2.83 | 0.0217 | -0.069 | -0.00973
CACGTCC | 0.166 | -0.00741 | -0.0334 | -0.273 | 0.0758 | -0.717 | 0.126 | 0.0434 | 0.0976 | 0.0678
TCCCCTC | -0.0215 | -0.00615 | 0.158 | -0.224 | -0.016 | -0.284 | -0.268 | -0.0027 | -0.0151 | 0.0738
